Patent publication US20260116960A1 (SHANGHAI HONGCHENG BIOPHARMACEUTICAL, published 2026)

Assays:
[1] = biological target: T1, human VEGF165-his protein (Acro, Catalog No. VE5-H5248) (human, UniProt P15692-4 27-191); test: ELISA, plate coated with human VEGF165-his
T1 construct: Bought protein; also called hVEGF165-His; VEGFA; not shown: his tag
T1 sequence (looked up): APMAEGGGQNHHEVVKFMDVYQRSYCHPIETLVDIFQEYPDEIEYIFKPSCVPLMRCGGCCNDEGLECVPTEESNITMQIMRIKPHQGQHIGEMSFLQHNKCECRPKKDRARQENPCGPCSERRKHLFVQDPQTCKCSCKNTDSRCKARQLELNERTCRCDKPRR
Experimental: ELISA was used to determine the activity of the trispecific antibodies binding to the PD-1 protein: 1 μg/mL human PD-1 protein (Acro, Catalog No.: PD1-H5221) was used to coat a high-adsorption 96-well ELISA plate and incubated at 4° C. overnight. On the next day, the plate was washed three times with PBST solution and blocked with 1% BSA-PBS solution at 37° C. for 1 hour. At the same time, 3-fold gradient dilutions of the antibody were prepared with 1% BSA-PBS solution, with a starting concentration of 10 nM. The antibodies of each gradient concentration were added to the blocked 96-well ELISA plate at 100 µL/well in triplicate and incubated at 37° C. for 1 hour. The plate was then washed three times with 0.05% PBST solution, and 100 μL/well of HRP-labeled secondary antibody (Sigma, Catalog No.: A0170) diluted at 1:5000 was added to the ELISA plate and incubated at 37° C. for 1 hour. The plate was washed three times with 0.05% PBST solution and developed with TMB. The absorbance of the 96-well ELISA plate at 450 nm was detected by an ELISA reader. The OD₄₅₀ value was fitted using a four-parameter model to calculate the EC₅₀ value of each antibody binding to PD-1.
The binding activity of the trispecific antibodies to VEGFA protein was detected by ELISA method as described in Section 2.1. The used human VEGF165-his protein was purchased from Acro, Catalog No.: VE5-H5248.

[2] = biological target: T2, human VEGF (ACRO, Catalog No. VE5-H4210) (human, UniProt P15692-4 27-191); test: BLI (Octet RED96e), antibody on AHC sensor, antigen as analyte 6.25-100 nM, 1:1 model
T2 construct: Analyte of the Octet assay; Bought protein
T2 sequence (looked up): T1 sequence (looked up)
Experimental: (§1) Octet® RED96e (ForteBio) was used to detect the affinity of trispecific antibodies to human PD-1, CTLA-4 and VEGFA. The specific method was as follows: the AHC Sensor was immersed in PBST (PBS containing 0.02% Tween) buffer for 10 minutes to activate the Sensor. The ligand (antibody to be tested) was diluted to 5 μg/mL with PBST buffer. […] The diluted ligand and analyte were added to the corresponding wells at 200 μL/well in triplicate. Program parameter settings: loading: 180 s, association: 180 s, dissociation: 600 s, regeneration: Gly-HCl pH 1.5, 30s, regeneration 3 times. […] Curve fit acceptance criteria: Full R\hat{ }2≥0.95.

[3] = biological target: T3, human CTLA-4 protein (Acro, Catalog No. CT4-H52H9) (human, UniProt P16410 36-161); test: as above
T3 construct: Bought protein
Experimental: as §1

[4] = biological target: T4, human VEGFA 165 protein (human, UniProt P15692-4 27-191); test: cell-based or functional assay
T4 sequence (looked up): T1 sequence (looked up)

[5] = biological target: T5, Biotinylated Human VEGF165 (Acro, Catalog No. VE5-H82Q0) (human, UniProt P15692-4 27-191, biotinylated (site not stated)); test: flow cytometry: antibody titrated on CHOK1-hCTLA4 cells, then mixture of hPD1-mFc and biotin-hVEGF165; PE streptavidin signal
T5 construct: Bought protein; also called Biotinylated-hVEGF165; Biotin-hVEGF165
T5 sequence (looked up): T1 sequence (looked up)
Experimental: CHOK1-hCTLA4 cells were obtained by trypsin digestion, washed twice with PBS containing 2% FBS (FACS buffer), and the cell density was adjusted to about 8×10⁵ cells/ml. 200 μL/well of the cells were added to a 96-well U-bottom plate. After centrifugation at 300 g for 5 minutes, the supernatant was discarded and 100 μL of antibody solution serially diluted with FACS buffer was added in triplicate (with starting concentration of 200 nM, 3-fold serial dilution, and the same volume of FACS buffer was used as a negative control). Mixed well and incubated at 4° C. for 60 min. After washing the plate three times with FACS buffer, a mixture consisting of 1 μg/mL hPD1-mFc (Acro, Catalog No.: PD1-H5255) and 1 μg/mL Biotin-hVEGF165 in a 1:1 volume ratio was added to each well at 100 μL/well to detect the simultaneously binding activity of the trispecific antibodies to VEGF and PD-1 after binding to cell surface CTLA-4. […] After washing the plate three times with FACS buffer, 100 μL/well of PBS solution was added to resuspend the cells, and the fluorescence signal was detected on a flow cytometer. The binding activity was fitted using a four-parameter model, and the EC₅₀ value of each antibody was calculated.

[6] = biological target: human PD-1 protein (Acro, PD1-H5257) (human, UniProt Q15116 fragment); test: competitive ELISA, PD-1 coated, biotin-PD-L1 as labelled ligand
Experimental: The next day, the plate was washed three times with PBS solution and blocked with 1% BSA-PBS solution at 37° C. for 1 hour. […] 100 μL of the antibody-protein mixture was added to each well of the blocked 96-well ELISA plate and incubated at 37° C. for 1 hour. After washing four times with PBST, 100 μL of Strep-HRP (BD, Catalog No. 554066) diluted 1:5000 was added to each well of the ELISA plate and incubated at 37° C. for 1 hour. After washing 4 times with PBST, TMB was used for color development. The absorbance at 450 nm and 630 nm was detected by a microplate reader, and OD450-OD630 was calculated. The fluorescence intensity was fitted using a four-parameter model, and the IC₅₀ value of the blocking activity of each antibody was calculated.

[7] = biological target: T5, Biotinylated Human VEGF165 (Acro, …); test: flow cytometry: antibody titrated on activated human T cells, detected with 2 ug/mL biotinylated human VEGF165 and PE streptavidin
Experimental: After mixing, incubated at 4° C. for 60 minutes. […] The binding activity was fitted using a four-parameter model, and the EC₅₀ value of each antibody was calculated.

UniProt Q15116, sequence (Q15116 25-167 limits assumed): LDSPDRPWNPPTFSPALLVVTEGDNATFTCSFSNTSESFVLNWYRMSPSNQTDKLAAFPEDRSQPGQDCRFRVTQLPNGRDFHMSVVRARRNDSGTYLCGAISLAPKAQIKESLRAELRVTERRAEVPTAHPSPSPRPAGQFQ
T3 sequence (P16410 36-161 limits assumed): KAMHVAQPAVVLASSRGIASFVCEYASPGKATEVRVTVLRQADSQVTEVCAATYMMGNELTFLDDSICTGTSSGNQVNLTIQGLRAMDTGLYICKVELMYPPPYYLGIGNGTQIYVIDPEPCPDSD

EC50 [1]: 0.072 nM
Kd [2]: 5.47 nM
Kd [3]: 4.97 nM
IC50, inhibition of VEGFA-induced HUVEC cell proliferation (CellTiter-Glo) [4]: 0.86 nM
EC50 [5]: 1.44 nM
IC50 [6]: 0.782 nM
EC50 [7]: 0.44 nM
B1: HC010-F8 (trispecific antibody, human IgG4 S228P, kappa)
heavy: EVQLVESGGGLVQPGGSLRLSCAASGFTFSSYGMSWVRQAPGKCLEWVSTISGGGRDTYYPDSVKGRFTISRDNSKNTLYLQMNSLRAEDTAVYYCARQNGITWFADWGQGTLVTVSSGGGGSGGGGSGGGGSGGGGSDIQMTQSPSSLSASVGDRVTITCRASESVDNYGISFMNWYQQKPGKAPKLLIYAASNQGSGVPSRFSGSGSGTDFTLTISSLQPEDFATYYCQQSKEVPWTFGCGTKVEIKGGGGSGGGGSGGGGSGGGGSEVQLVESGGGLVQPGGSLRLSCAASGYTFTNYGMNWVRQAPGKGLEWVGWINTYTGEPTYAADFKRRFTFSLDTSKSTAYLQMNSLRAEDTAVYYCAKYPHYYGSSHWYFDVWGQGTLVTVSSASTKGPSVFPLAPCSRSTSESTAALGCLVKDYFPEPVTVSWNSGALTSGVHTFPAVLQSSGLYSLSSVVTVPSSSLGTKTYTCNVDHKPSNTKVDKRV[human IgG4 Fc with S228P (EU numbers) not spelt out]AGGGGSGGGGSGGGGSGGGGSEVQLLESGGGLVQPGGSLRLSCAASGSIFSINHMAWYRQAPGKQRELVAGVNSRGTTNYVDSVKGRFTISRDNSKNTLYLQMNSLRAEDTAVYYCRALGGAVAAWGQGTLVTVSS
light: DIQMTQSPSSLSASVGDRVTITCSASQDISNYLNWYQQKPGKAPKVLIYFTSSLHSGVPSRFSGSGSGTDFTLTISSLQPEDFATYYCQQYSTVPWTFGQGTKVEIKRTVAAPSVFIFPPSDEQLKSGTASVVCLLNNFYPREAKVQWKVDNALQSGNSQESVTEQDSKDSTYSLSSTLTLSKADYEKHKVYACEVTHQGLSSPVTKSFNRGEC
notes: light: bevacizumab VL-kappa; also called H010-F8
